This is one part of the list.
Experiments:
Assay in all cases: glycan array binding signal (z-score within array); higher = stronger binding
Conditions in all cases: glycan notation: IUPAC condensed, linker removed
[1] = target: Neu5Ac(a2-6)Gal(b1-4)GlcNAc(b1-6)[Gal(b1-3)]GalNAc
Method in brief: (§1)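 The binding signal is a Z-score computed within each array and averaged over linkers. Arrays of the same protein sequence at different concentrations or buffers were also averaged together. Data originate from 3228 arrays in the Consortium for Functional Glycomics database, kept only where the protein sequence was available.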

[2] = target: Neu5Ac(a2-6)Gal(b1-4)GlcNAc6S
Method in brief: as §1

Neu5Ac(a2-6)GalNAc = target: Neu5Ac(a2-6)GalNAc
Method in brief: as §1

[3] = target: Neu5Ac(a2-6)GalNAc(b1-4)GlcNAc
Method in brief: as §1

[4] = target: Neu5Ac(a2-6)GalNAc(b1-4)GlcNAc6S
Method in brief: as §1

[5] = target: Neu5Ac(a2-6)GlcNAc(b1-4)GlcNAc
Method in brief: as §1

[6] = target: Neu5Ac(a2-6)GlcNAc(b1-4)GlcNAc(b1-4)GlcNAc
Method in brief: as §1

Neu5Ac(a2-8)Neu5Ac = target: Neu5Ac(a2-8)Neu5Ac
Method in brief: as §1

[7] = target: Neu5Ac(a2-8)Neu5Ac(a2-3)Gal(b1-3)GalNAc(b1-4)[Neu5Ac(a2-3)]Gal(b1-4)Glc
Method in brief: as §1

[8] = target: Neu5Ac(a2-8)Neu5Ac(a2-3)Gal(b1-3)GalNAc(b1-4)[Neu5Ac(a2-8)Neu5Ac(a2-3)]Gal(b1-4)Glc
Method in brief: as §1

[9] = target: Neu5Ac(a2-8)Neu5Ac(a2-3)Gal(b1-4)Glc
Method in brief: as §1

[10] = target: Neu5Ac(a2-8)Neu5Ac(a2-3)Gal(b1-4)GlcNAc
Method in brief: as §1

[11] = target: Neu5Ac(a2-8)Neu5Ac(a2-3)[Gal(b1-3)GalNAc(b1-4)]Gal(b1-4)Glc
Method in brief: as §1

[12] = target: Neu5Ac(a2-8)Neu5Ac(a2-3)[GalNAc(b1-4)]Gal(b1-4)Glc
Method in brief: as §1

[13] = target: Neu5Ac(a2-8)Neu5Ac(a2-8)Neu5Ac
Method in brief: as §1

[14] = target: Neu5Ac(a2-8)Neu5Ac(a2-8)Neu5Ac(a2-3)Gal(b1-4)Glc
Method in brief: as §1

[15] = target: Neu5Ac(a2-8)Neu5Ac(a2-8)Neu5Ac(a2-3)[Gal(b1-3)GalNAc(b1-4)]Gal(b1-4)Glc
Method in brief: as §1

[16] = target: Neu5Ac(a2-8)Neu5Ac(a2-8)Neu5Ac(a2-3)[GalNAc(b1-4)]Gal(b1-4)Glc
Method in brief: as §1

[17] = target: Neu5Ac(a2-8)Neu5Ac(a2-8)Neu5Ac(a2-8)Neu5Ac(a2-3)[GalNAc(b1-4)]Gal(b1-4)Glc
Method in brief: as §1

[18] = target: Neu5Ac(a2-8)Neu5Gc(a2-3)Gal(b1-4)GlcNAc
Method in brief: as §1

Neu5Ac(b1-6)GalNAc = target: Neu5Ac(b1-6)GalNAc
Method in brief: as §1

[19] = target: Neu5Ac(b2-6)Gal(b1-4)GlcNAc
Method in brief: as §1

Neu5Ac(b2-6)GalNAc = target: Neu5Ac(b2-6)GalNAc
Method in brief: as §1

[20] = target: Neu5Ac9Ac(a2-3)Gal(b1-3)GlcNAc
Method in brief: as §1

[21] = target: Neu5Ac9Ac(a2-3)Gal(b1-4)GlcNAc
Method in brief: as §1

[22] = target: Neu5Ac9Ac(a2-6)Gal(b1-4)GlcNAc
Method in brief: as §1

[23] = target: Neu5Gc(a2-3)Gal(b1-3)GlcNAc
Method in brief: as §1

[24] = target: Neu5Gc(a2-3)Gal(b1-3)[Fuc(a1-4)]GlcNAc
Method in brief: as §1

Neu5Gc(a2-3)Gal(b1-4)Glc = target: Neu5Gc(a2-3)Gal(b1-4)Glc
Method in brief: as §1

[25] = target: Neu5Gc(a2-3)Gal(b1-4)GlcNAc
Method in brief: as §1

[26] = target: Neu5Gc(a2-3)Gal(b1-4)GlcNAc(b1-3)Gal(b1-4)GlcNAc(b1-2)Man(a1-3)[Neu5Gc(a2-3)Gal(b1-4)GlcNAc(b1-3)Gal(b1-4)GlcNAc(b1-2)Man(a1-6)]Man(b1-4)GlcNAc(b1-4)GlcNAc
Method in brief: as §1

[27] = target: Neu5Gc(a2-3)Gal(b1-4)[Fuc(a1-3)]GlcNAc
Method in brief: as §1

[28] = target: Neu5Gc(a2-6)Gal(b1-4)GlcNAc
Method in brief: as §1

Neu5Gc(a2-6)GalNAc = target: Neu5Gc(a2-6)GalNAc
Method in brief: as §1

[29] = target: Neu5Gc(a2-8)Neu5Ac(a2-3)Gal(b1-4)GlcNAc
Method in brief: as §1

[30] = target: Neu5Gc(a2-8)Neu5Gc(a2-3)Gal(b1-4)GlcNAc
Method in brief: as §1

[31] = target: Neu5Gc(a2-8)Neu5Gc(a2-3)Gal(b1-4)GlcNAc(b1-3)Gal(b1-4)GlcNAc
Method in brief: as §1

[32] = target: Neu5Gc(a2-8)Neu5Gc(a2-6)Gal(b1-4)GlcNAc
Method in brief: as §1

[33] = target: Neu5Gc(b2-6)Gal(b1-4)GlcNAc
Method in brief: as §1

B1: UDA (Urtica dioica), P11218 (protein)
chain: MMMRFLSAVVIMSSAMAVGLVSAQRCGSQGGGGTCPALWCCSIWGWCGDSEPYCGRTCENKCWSGERSDHRCGAAVGNPPCGQDRCCSVHGWCGGGNDYCSGSKCQYRCSSSVRGPRVALSGNSTANSIGNVVVTEPLFDQMFSHRKDCPSQGFYSYHSFLVAAESFPAFGTIGDVATRKREVAAFLAHISQATSGERSDVENPHAWGLCHINTTTVTENDFCTSSDWPCAAGKKYSPRGPIQLTHNFNYGLAGQAIGEDLIQNPDLVEKDPIISFKTALWFWMSQHDNKPSCHDIVLNANSAANRIPNKGVIGNIISRAFGHDDFAVRSSSIGFYKRYCDMLGVSYGHDLKYWFDNTPSSEFQRIQMRVAA
Question: What does the source list for B1?
Answer: glycan array binding signal (z-score) [1]: -0.179; glycan array binding signal (z-score) [2]: -0.194; glycan array binding signal (z-score) (Neu5Ac(a2-6)GalNAc): -0.19; glycan array binding signal (z-score) [3]: -0.175; glycan array binding signal (z-score) [4]: -0.182; glycan array binding signal (z-score) [5]: -0.121; glycan array binding signal (z-score) [6]: 0.371; glycan array binding signal (z-score) (Neu5Ac(a2-8)Neu5Ac): -0.181; glycan array binding signal (z-score) [7]: -0.178; glycan array binding signal (z-score) [8]: -0.181; glycan array binding signal (z-score) [9]: -0.192; glycan array binding signal (z-score) [10]: -0.047; glycan array binding signal (z-score) [11]: -0.176; glycan array binding signal (z-score) [12]: -0.188; glycan array binding signal (z-score) [13]: -0.189; glycan array binding signal (z-score) [14]: -0.186; glycan array binding signal (z-score) [15]: -0.166; glycan array binding signal (z-score) [16]: -0.189; glycan array binding signal (z-score) [17]: -0.171; glycan array binding signal (z-score) [18]: -0.041; glycan array binding signal (z-score) (Neu5Ac(b1-6)GalNAc): -0.249; glycan array binding signal (z-score) [19]: -0.19; glycan array binding signal (z-score) (Neu5Ac(b2-6)GalNAc): -0.172; glycan array binding signal (z-score) [20]: -0.176; glycan array binding signal (z-score) [21]: 0.27; glycan array binding signal (z-score) [22]: -0.195; glycan array binding signal (z-score) [23]: -0.187; glycan array binding signal (z-score) [24]: -0.187; glycan array binding signal (z-score) (Neu5Gc(a2-3)Gal(b1-4)Glc): -0.186; glycan array binding signal (z-score) [25]: 0.328; glycan array binding signal (z-score) [26]: 0.015; glycan array binding signal (z-score) [27]: -0.191; glycan array binding signal (z-score) [28]: -0.186; glycan array binding signal (z-score) (Neu5Gc(a2-6)GalNAc): -0.191; glycan array binding signal (z-score) [29]: -0.091; glycan array binding signal (z-score) [30]: -0.107; glycan array binding signal (z-score) [31]: -0.099; glycan array binding signal (z-score) [32]: -0.175; glycan array binding signal (z-score) [33]: -0.167

From the supplement of paper PMC8728848
